# Test results from publication PMC12136788.
# The list shows a part of the results.
# T1: UNK ZnF1-3 (human, UniProt Q9C0B0 31-174)
# T1 sequence: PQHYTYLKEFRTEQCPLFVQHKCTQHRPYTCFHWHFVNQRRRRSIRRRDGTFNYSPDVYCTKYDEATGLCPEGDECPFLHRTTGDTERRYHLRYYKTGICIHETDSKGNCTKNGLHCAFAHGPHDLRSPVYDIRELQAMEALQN
# B1: chr17:62495991:62495992:-_ENSG00000108654_ENST00000581693|hu_hu|motif|central (ssRNA)
# RNA: GGGAGUUCUACAGUCCGACGAUCCACCAUAAUUACUGCUGCACUGCAGUCAUUUCUGCAAUUCCCAUGUUUCUUAAAUAACGGUCUUGUCAGAUAACACACAAUAUAAAGAGCAAUUAUGAAAAACAGACAUUUACAUAUACUCAACAGAGGAUUGAGCAUCA
# B2: 93279883_93281176_729_CDS_ENSMUSG00000026309_ENSMUST00000027534|mouse|control|control (ssRNA)
# RNA: GGGAGUUCUACAGUCCGACGAUCACUAUCUCCAAGGUUGGCGAUAUACAGGAUGUUGUCCACAGCCAGGACACACGUGGCAGUGGACCCGUCUUUCCAGGCAGGCUUCUGGCUUGAAGCCUGUUUCAGGAACUCUUCAUCGGUCAACAGAGGAUUGAGCAUCA
# B3: 10008422_10008542_665_CDS_ENSG00000115750_ENST00000263663|human|control|control (ssRNA)
# RNA: GGGAGUUCUACAGUCCGACGAUCGCUGACGGGGAAAGGUUUUCGAGUGUGGAUGUCAGACUGAGACUCCGCUCCACUUUCAAGAAAAGGAGGACAGCUGACAUCACUUAGCAGCUCAGGCUCACUAGCCCAGUCUGAAUGACUCAACAGAGGAUUGAGCAUCA
# B4: chr14:102368134:102368135:+_ENSG00000078304_ENST00000445439|hu_hu|hu_hu_hu_mus_True|88_108 (ssRNA)
# RNA: GGGAGUUCUACAGUCCGACGAUCAAGGGGUUCCAUGAUCUUCACAAAUUCUGAUGGUUCAAUUACAUCUAAAAUUUCUUCUAAUUCAUUUAAGAACAUUACUUCUUUUGGACUGUGAGUCUUUGGCCAGUAUUUGAGAAGUGCCAACAGAGGAUUGAGCAUCA
# B5: 73577691_73577811_2190_CDS_ENSG00000119707_ENST00000261973|human|control|control (ssRNA)
# RNA: GGGAGUUCUACAGUCCGACGAUCAUCUGGUGAGUUUUCAUGAGGAAUAAUAAUACCACAGGGAGACUCAUCCCCAGGAGUGUUAGGUGUUGCAUUGCCACUGGCAGAGGAAACAGAUGGAGCAGAGCUGAUGGGCCUCAGAGUCAACAGAGGAUUGAGCAUCA
# B6: chr10:70928335:70928336:+_ENSG00000122958_ENST00000263559|hu_hu|FALSE|FALSE (ssRNA)
# RNA: GGGAGUUCUACAGUCCGACGAUCCCAUAAAAUUAUCUCCUGCUGUUUGAAGUACCUCCGGUCUUCCUCAUCAACAAGCACUAAAUUCAAAAAGUACCUUACUGAAAAUUUUUUGUUCACAUCUCUCAUUGUUGGAGUUGGGUCCAACAGAGGAUUGAGCAUCA
# B7: chr1:120503909:120503910:+_ENSMUSG00000064302_ENSMUST00000049404|mus_mus|FALSE|FALSE (ssRNA)
# RNA: GGGAGUUCUACAGUCCGACGAUCCUUUCUCCAUGUCAUGUAGAAGACAGGAGGGGGUCUUGUCCCAUCUGACCAUACUCUAAGAACAUAAGCAUAAAGAACACACAGCAAUACCCCAAACCACCCCCAAGUCUGUAUGGACUGCAACAGAGGAUUGAGCAUCA
# B8: chr19:8913615:8913616:-_ENSMUSG00000071658_ENSMUST00000096259|mus_hu|mus_mus_mus_hu_False|18_58 (ssRNA)
# RNA: GGGAGUUCUACAGUCCGACGAUCAGGGUACCAAAACCUUCUGCCUGAAAUGGGUGCCCCACCCAGUAGGGAGUUGCAGCUAAAAAUAUCUGAUGCAGAAGCAGUGACUAUACGAAAGGUCACUAGAGGGGAGGGCCAGGCCAGCAACAGAGGAUUGAGCAUCA
# B9: chr18:25531195:25531196:-_ENSG00000170558_ENST00000399380|hu_hu|motif|central (ssRNA)
# RNA: GGGAGUUCUACAGUCCGACGAUCUUUCUUUCCUUUCCUUUUUUUUUUUUUUUGGUACAAAUUAUGUAAAACAUUUGUGCGGAGAACUUUUCUCCCUCCCCAAACCAAAAAGAAAAUAAAAAAUAAAAAAAUUAAAAAAAUUAACAACAGAGGAUUGAGCAUCA
# B10: 55057286_55057406_3720_CDS_ENSMUSG00000052713_ENSMUST00000064763|mouse|control|control (ssRNA)
# RNA: GGGAGUUCUACAGUCCGACGAUCAUAAAGUGACUGAGCCAGGGCAGGGUGUCUCUGGGUGAUGACUGACUGGUGCUGAGGCUGCAGGGGUGCAGAAGUAUGGUCUACUUUCUUGGACUCCAACUGUUCCGCCUUGUCUUUCUUCAACAGAGGAUUGAGCAUCA
# B11: chrX:102931482:102931483:-_ENSG00000123562_ENST00000441076|hu_hu|motif|central (ssRNA)
# RNA: GGGAGUUCUACAGUCCGACGAUCAAUUGCAUCUACAUUUUUCUUGGCAGGGAGUUGAAACAGCUGCUUCUGCCUGGUAACGGAGUCCCAGUCCUCAACAAGCCAUGGUUUUAAUUCUUCAGGAAUCUUCACUUUAACCUCCAUCAACAGAGGAUUGAGCAUCA
# B12: chr11:87793471:87793472:-_ENSMUSG00000020483_ENSMUST00000020775|mus_hu|motif|central (ssRNA)
# RNA: GGGAGUUCUACAGUCCGACGAUCUGGACUUGAAAAUAAAAGAAUAAGCUGGAUCCCCCACCCCCCCACAUUGUCAACCCGGCACGAGAGUUUUGAAGGCGACUCAUGAAAAUCAGCAGCUCAAACGGCAAUGACCACCCCACCCAACAGAGGAUUGAGCAUCA
# B13: chr6:29525140:29525141:-_ENSMUSG00000012535_ENSMUST00000012679|mus_hu|motif|central (ssRNA)
# RNA: GGGAGUUCUACAGUCCGACGAUCGUUAGUUUUGUACAAAUGUUCCCCCAGUCGGUACCAAAAGUUAAAUGAAAUUUCGGCGGCCUCAUAUUGAGGAUGGCCUGCACAGAUAAGCAGCAGCUCCAGAGUUCGAAGGUCCCCAAGCAACAGAGGAUUGAGCAUCA
# B14: chr1:185276735:185276736:-_ENSG00000116679_ENST00000392007|hu_hu|FALSE|FALSE (ssRNA)
# RNA: GGGAGUUCUACAGUCCGACGAUCGAAUAUAAGCAUCAACCUUAUUCAACAAACGGGAGUCUCCCAUACAACUUGCAAAAUUUCGGUAAGAGAUGCAGCUGGUAACAUCCAUUCUAGACAGUAAAUAAUCACCACAAACCUGCUCAACAGAGGAUUGAGCAUCA
# B15: chr12:7074771:7074772:-_ENSG00000215021_ENST00000535923|hu_hu|FALSE|FALSE (ssRNA)
# RNA: GGGAGUUCUACAGUCCGACGAUCCAGGGAACCGGUGUGGGGGACCAUCGCAUGAUACUGGGGCGGGGUAGGGCUGUGCUGGACCCCUGGCUGGCUCCUCAAAAACUGGAGAAGCAGAUCCACUUCCUCUGGGGGUGGAGUUCUCAACAGAGGAUUGAGCAUCA
# B16: chr14:78183846:78183847:+_ENSG00000119705_ENST00000557342|hu_hu|hu_hu_hu_mus_False|28_58 (ssRNA)
# RNA: GGGAGUUCUACAGUCCGACGAUCUCUCAGAAAUCUUUCUUCAUCAGAUGUUUGAGCUCCGUGCAAAGCCUUUGCUCUUCUAGUGUGAACGUGGAUCUAUGGGAGGGCUAUAAUAUGCAGAAAAGGUAAUUUUUUUUUUAAAGACAACAGAGGAUUGAGCAUCA
# B17: chr13:94999761:94999762:-_ENSMUSG00000021687_ENSMUST00000022197|perfect_dup|FALSE|FALSE (ssRNA)
# RNA: GGGAGUUCUACAGUCCGACGAUCUUCUACAGGAAUGUCUACAGAAAAAUCCUGAUAGAAACAAGGUCCGACAGGAAAAUUGCUAGGAAGAGGUGGCCAAUUAUUUUUUCUACCAUGUUGACUGAGGUUUUGCAUUUCUCGUUCCAACAGAGGAUUGAGCAUCA
# B18: chr2:113333244:113333245:+_ENSG00000125630_ENST00000417433|hu_hu|motif|central (ssRNA)
# RNA: GGGAGUUCUACAGUCCGACGAUCAACAUCAAGUUAAACAACAUCCAGUUUCACUUUGAUGUUCAUAGCUGCCAGUUCAGCGGCAAAAUACCGAAAAACAUAAGGCACAGAAACAGUAUCGAUAGUGUCACUGCGACUACACAGCAACAGAGGAUUGAGCAUCA
# B19: chr16:47694578:47694579:+_ENSG00000102893_ENST00000566044|hu_mus|motif|central (ssRNA)
# RNA: GGGAGUUCUACAGUCCGACGAUCCUCAGGAGCAUCUGCGGUACUGCUCUGCCGUUUGACUUUUGAAUGCUUAGGAAAUUCGGGUUCUUCAAAGCUCUUAAAUUCUGGAAGCUUUUCUGUGUCACUAAUUCGUAGAAAGUCAAGCAACAGAGGAUUGAGCAUCA
# B20: chr9:95013113:95013114:-_ENSG00000196305_ENST00000443024|hu_hu|hu_hu_hu_mus_False|28_68 (ssRNA)
# RNA: GGGAGUUCUACAGUCCGACGAUCCUCAGUCAGAAAGGGCGUGUAAGGGGCCAUCAGUCUGCACAGAGAAAGCAGAACACUGAACAGUGUCUCCAGAGCCAUGACACAAUCCUCCAUCCCACUCUCACCCUUUAACCUCCUCCUCAACAGAGGAUUGAGCAUCA
# B21: chr7:141445308:141445309:+_ENSG00000106028_ENST00000265304|hu_hu|hu_hu_hu_mus_False|18_38 (ssRNA)
# RNA: GGGAGUUCUACAGUCCGACGAUCUAUGAUUGUUGUUGCUUGCCGCCUCACAUUGUUUUUAUCCAUGUACUCGCCAUAGUCCACUUUCCCUUCCACAUAAAUUCGAGCCCCCUUUUUCACAUAUUGAUAUGCCACAUCUCUGAGCAACAGAGGAUUGAGCAUCA
# B22: chr1:45244325:45244326:+_ENSG00000142937_ENST00000396651|hu_mus|FALSE|FALSE (ssRNA)
# RNA: GGGAGUUCUACAGUCCGACGAUCACACCUUUAUUACACUACACAUGAGGCUCAUUUGCCUUUCCGGGCUUUGAUCUUCCGCAGAUAGAACUCCAGCUCCUUGCCUUCGAGCACAUAGCCGUCUGCUCUGCCACACUGGCCUGGCAACAGAGGAUUGAGCAUCA
# Biological target: T1, UNK ZnF1-3
# Experiment: nsRBNS (natural sequence RNA bind-n-seq); RBNS binding buffer (assumed for nsRBNS): 25 mM Tris pH 7.5, 150 mM KCl, 3 mM MgCl2, 0.01% Triton X-100, 500 ug/ml BSA, 20 U/ml SUPERase-In, 4 C; UNK is unkempt and MSI1 is Musashi-1; names of the RNAs are library labels; protein concentration not given here; high values mean tight binding
row,Binder,binding signal [enrichment R]
1,B1,0.746
2,B2,0.336
3,B3,0.627
4,B4,0.799
5,B5,1.63
6,B6,1.13
7,B7,1.37
8,B8,1.59
9,B9,2.43
10,B10,0.915
11,B11,1
12,B12,2.46
13,B13,0.98
14,B14,2.24
15,B15,1.06
16,B16,3.18
17,B17,1.64
18,B18,0.83
19,B19,0.894
20,B20,1.46
21,B21,0.668
22,B22,0.902
